Laboratory results from PubChem BioAssay AID686979 (National Center for Advancing Translational Sciences (NCATS), 2013).
Several values for one entry are separate records, joined by “and”; a condition that tells them apart may be missing. Equal entries are not always repeated. The whole screen tested about 420,000 compounds, of which about 50,000 (12%) were called active. Inconclusive results, whose numbers are uncertain, are shown with a selection of clear calls. Calls come from the whole dose curve; as a rule, active = well fitted inhibition curve with a large enough effect; inconclusive = small, poorly fitted or top-dose-only effect; inactive = flat fitted curve, though single readings scatter. Potencies of inconclusive entries are left out as doubtful fits.

Assay: qHTS for Inhibitors of human tyrosyl-DNA phosphodiesterase 1 (TDP1): qHTS in cells in presence of CPT; note: nearly all actives have a fitted effect of over 55% in size
Conditions: chicken DT40 Tdp1-/-;hTDP1 cells + 20 nM CPT, ATP luminescence, 48 h; activity change, negative = growth inhibition: at 46.2 µM (top of the series) unless noted
In short: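 Chicken DT40 Tdp1-/- cells complemented with human TDP1, 400 cells/well, exposed to compounds plus 20 nM camptothecin for at least 48 h at 37 C; viability read as ATP content by CellTiter-Glo luminescence.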
% is set by controls: 0 for no effect and ±100 for the full control effect; potency is the fitted concentration of half-maximal effect; tags give direction and shape of the fitted curve.

| Compound | Potency | activity change, negative = growth inhibition |
| --- | --- | --- |
| COc1ccc(CNC(=O)[C@]2(C)CCC[C@@]3(C)C4CC[C@@]5(C)C[C@]4(CCC32)CC5=O)cc1 (stereo not given in full) | inconclusive [inhibitor, single point] |  |
| OC[C@@H]1CN(Cc2ccc(F)cc2)C[C@H](n2cnc3c(NCc4ccncc4)ncnc32)O1 |  | inconclusive: -32.3% [inhibitor] |
| COc1cc(OC)nc(C(NC(=O)C2CCN(Cc3c[nH]c4ccccc34)CC2)c2ccc(Cl)cc2)n1 (stereo not given) | inconclusive [inhibitor, single point] |  |
| CCc1c(C)nc2cc(-c3cc(OC)cc(OC)c3)nn2c1N1CCCC1 | active: 29.1 µM |  |
| CCc1ccccc1N(C)C(=O)Cn1cnc2sc(C)c(S(=O)(=O)N3CCN(c4ncccn4)CC3)c2c1=O | inconclusive [inhibitor, single point] |  |
| O=C(CSc1nccn1-c1ccc(Cl)cc1)Nc1ccc2c(c1)OCO2 | inconclusive [inhibitor, single point] |  |
| COc1ccccc1CNC(=O)c1cc(-c2ccccc2)nn1Cc1cc(C)no1 | inconclusive [inhibitor, single point] |  |
| Cc1ccc(-c2nc(C3CCCN(S(=O)(=O)c4ccc(C(C)(C)C)cc4)C3)no2)cc1 (stereo not given) | inconclusive [inhibitor, partial curve] |  |
| Cc1nc(Nc2nc3c(c(=O)[nH]2)CCC3)nc2ccccc12 | active: 5.8 µM |  |
| COc1ccc(N2CCN(c3ncnc4sc(C(=O)NCC5CCCO5)c(C)c34)CC2)cc1 (stereo not given) | inconclusive [inhibitor, partial curve, poor fit] |  |
| O=C(CSc1nc2ncc(Cl)cc2[nH]1)Nc1ccccc1-c1ccccc1 | inconclusive [inhibitor, single point] |  |
| CC(C)NCC(O)Cn1c2c(c3ccccc31)CCc1c-2cnn1-c1ccccc1 (stereo not given) | active: 3.66 µM |  |
| CCOC(=O)c1ccccc1NC(=O)COC(=O)CSC(C)C(=O)Nc1cc(C)on1 (stereo not given) |  | inactive: 4.6% |
| CCCCNC(=O)CSc1nc2ccccc2c(=O)n1Cc1ccc2c(c1)OCO2 |  | inactive: -26.5% |
| O=C1C(=O)C(c2cc(O)c(O)c(O)c2)Oc2cc(O)cc(O)c21 (stereo not given) | inconclusive [inhibitor, single point] |  |
| CCOc1ccccc1CNC(=O)CCn1ccc2cc(S(=O)(=O)N3CCC(C)CC3)ccc21 | active: 9.2 µM |  |
| COC(=O)c1ccc(Cn2nnc3sc4c(c3c2=O)CCC(C)C4)cc1 (stereo not given) | inconclusive [inhibitor, single point] |  |
| CSc1cccc(NC(=S)N(CCN(C)C)C(C)c2ccncc2)c1 (stereo not given) | inconclusive [inhibitor, partial curve] |  |
| CCOc1ccccc1CN1CCC(n2nccc2NC(=O)CCc2ccccc2)CC1 | inconclusive [inhibitor, single point] |  |
| OCc1cc(CO)c(O)c(CCc2ccccc2)n1 |  | inactive: 2.55% |
| O=c1c(Cl)c(Cl)cnn1Cc1ccc(F)cc1 |  | inactive: -112% |
| COc1ccc(CN2C(=O)C(CC(=O)NC3CCCCC3)CC(C(=O)N3CCOCC3)=C2C)cc1 (stereo not given) |  | inactive: -10.3% |
| COc1ccc(OC)c(C(C(=O)NCc2ccco2)N(C(=O)Cn2nnc3ccccc32)C(C)C)c1 (stereo not given) |  | inactive: -23.3% |
| CCOc1ccc(Nc2nc(N)c3ccccc3n2)cc1 | active: 7.31 µM |  |

| Compound | Potency | activity change, negative = growth inhibition |
| --- | --- | --- |
| CCCS(=O)(=O)c1c(Nc2ccccc2C)sc(C(=O)c2ccccc2)c1N | inconclusive [inhibitor, single point] |  |
| CC(=O)Oc1ccc2c(c1OC(C)=O)OCC1(O)Cc3c(cc(OC(C)=O)c(OC(C)=O)c3OC(C)=O)C21 (stereo not given) | inconclusive [inhibitor, partial curve, poor fit] |  |
| O=C(NC1CCCc2ccccc21)c1ccc2c(c1)sc1nc(-c3ccc(F)cc3)cn12 (stereo not given) | inconclusive [inhibitor, partial curve] |  |
| CCOc1ccc(N2C(=O)C3Sc4[nH]c(=O)sc4C(/C=C/c4ccccc4)C3C2=O)cc1 (stereo not given) | inconclusive [inhibitor, single point] |  |
| CCCCSc1nnc(-c2ccccc2)c2ccccc12 | inconclusive [inhibitor, partial curve] |  |
| O=C(COC(=O)/C=C/c1ccc(F)cc1)NCC1CCCO1 (stereo not given) | inconclusive [inhibitor, single point] |  |
| CCOc1ccc(CCNC(=O)c2cc3c(=O)[nH]c4ccc(C)cc4c3s2)cc1OCC | active: 4.11 µM |  |
| Cc1ccnc2cc(Cl)cc(Cl)c12 |  | inactive: -14.8% |
| COc1ccc(CN2CCc3ccccc3C2)c(OC)c1OC | inconclusive [inhibitor, single point] |  |
| O=C(CC1CCCCC1)Nc1ncn[nH]1 |  | inactive: -1.48% |
| O=C1OCCN1C(=O)[C@H]1[C@H](c2ccc(F)cc2)C(c2ccc(F)cc2)=NN1c1ccc(Br)cc1 | inconclusive [inhibitor, single point] |  |
| Nc1ncnc2c(C3OC(CO)C(O)C3O)c[nH]c12 (stereo not given) | active: 0.164 µM |  |
| CC(=O)c1cccc(NC(=O)c2cccc3c(-c4cccnc4)coc23)c1 | active: 11.6 µM |  |
| COc1ccc2c(CNCCc3cccs3)c(C(=O)O)n(Cc3ccccc3)c2c1 | inconclusive [inhibitor, single point] |  |
| COc1ccc(N2C(=O)CC(Sc3nnc(-c4ccccc4)o3)C2=O)cc1 (stereo not given) | active: 2.91 µM |  |
| CC(C)Cn1c(SC(C)C(=O)Nc2ccc(N3CCOCC3)cc2)nc2ccccc21 (stereo not given) |  | inactive: -15.4% |
| O=C1c2ccccc2C(=O)N1CCOc1ccccc1Br |  | inactive: -3.28% |
| COC(=O)c1cc(Br)c(=O)n(CC(C)C)c1 |  | inactive: -0.72% |
| CC(=O)N1CCCN(Cc2cn(-c3cc(C)ccc3C)nc2-c2ccccc2)CC1 | active: 18.4 µM |  |
| O=C(c1ccc(Cn2cc(Br)cn2)cc1)N1CCN(c2ccccc2)CC1 | active: 14.6 µM |  |
| CCc1ccc2c(c1)NC(c1cccs1)=NC(c1ccc(F)cc1)=N2 | active: 23.1 µM |  |
| CCN(c1ccccc1)S(=O)(=O)c1cccc(C(=O)NCC(c2ccc(OC)cc2)N2CCCCC2)c1 (stereo not given) | active: 18.4 µM |  |
| Cc1cccc(C2Nc3cccc4cccc(c34)N2)c1 | inconclusive [inhibitor, single point] |  |
| CCOc1cc(/C=N/N=C2/NC(=O)C(CC(=O)O)S2)ccc1OCc1ccc(Cl)cc1Cl (stereo not given) | inconclusive [inhibitor, single point] |  |

| Compound | Potency | activity change, negative = growth inhibition |
| --- | --- | --- |
| O=C(O/N=C\c1ccc(N2CCOCC2)c([N+](=O)[O-])c1)c1ccc(F)cc1 |  | inactive: -17.4% |
| CC1CCN(c2nncc3ccccc23)CC1 | inconclusive [inhibitor, single point] |  |
| CC(=O)N(Cc1cccnc1)c1nc2c(C)c(C)ccc2s1 | inconclusive [inhibitor, single point] |  |
| C/C=C\C=C\C(=O)N1CC2(CC(c3cccc(NC(=O)CC(c4ccccc4)c4ccccc4)c3)=NO2)C[C@H]1C(N)=O (stereo not given in full) | inconclusive [inhibitor, single point] |  |
| Cn1c(Nc2ccc(Cl)cc2F)nc2cc(-c3ccccc3)sc2c1=O | inconclusive [inhibitor, single point] |  |
| CCCCCNC(=O)c1cccc(S(=O)(=O)N2CC3(C)CC2CC(C)(C)C3)c1 (stereo not given) | inconclusive [inhibitor, single point] |  |
| COc1ccc(-c2c(NC(C)=O)n(C)c3ccccc3c2=O)cc1 |  | inactive: -7.15% |
| Cc1ccc(C(=O)c2cn(Cc3cccc(F)c3)c3nc(C)ccc3c2=O)cc1 | inconclusive [inhibitor, single point] |  |
| Cc1ccc(NC(=O)Cn2cc(C(=O)c3cccs3)c3ccccc32)cc1C | inconclusive [inhibitor, single point] |  |
| O=C(Cc1nc2ccccc2[nH]1)N/N=C/c1ccccc1 | inconclusive [inhibitor, single point] |  |
| O=C(CCSCc1cnn(-c2ccccc2)c1-n1cccc1)NCc1ccc(Cl)cc1 | inconclusive [inhibitor, single point] |  |
| COc1ccc2[nH]c(=O)c3c(c2c1)OC(C)(C)C=C3 | active: 11.9 µM and active: 14.6 µM |  |
| CCSc1nc2c(c(=O)n1-c1ccc(F)cc1)SCC2 | inconclusive [inhibitor, single point] |  |
| CN(C)c1ccc(C(=O)Nc2nc3c(s2)CCCC3)cc1 | inconclusive [inhibitor, partial curve] |  |
| CC(C)c1ccc2c(c1)C(N1CCN(C)CC1)Cc1cccnc1S2 (stereo not given) | inconclusive [inhibitor, single point] |  |
| O=C(Nc1ccncc1)c1ccccc1F | inconclusive [inhibitor, single point] |  |
| Nc1[nH]c(N=NC(=O)c2ccccc2O)c2ccccc12 | inconclusive [inhibitor, single point] |  |
| O=C(COC(=O)c1ccc(F)c(S(=O)(=O)N2CCOCC2)c1)NCc1ccccc1 |  | inactive: 10.1% |
| CC1CCCN(C(=O)N2c3ccccc3Sc3ccccc32)C1 (stereo not given) | inconclusive [inhibitor, single point] |  |
| Nc1ccccc1-c1ccn[nH]1 |  | inactive: 5.4% |
| O=C(Nc1cccc(F)c1)N1CC2(CCN(C(=O)c3ccncc3)CC2)C1 | inconclusive [inhibitor, single point] |  |
| CCOCc1c(C(=O)N2CCN(CCOc3ccc(Cl)cc3)CC2)oc2ccccc12 | inconclusive [inhibitor, single point] |  |
